Measurements from PubChem BioAssay AID1347120 (National Center for Advancing Translational Sciences (NCATS), 2019).
The whole screen tested about 390,000 compounds, of which about 930 (0.24%) were called active. The inconclusive results got no clear call from the source; some entries with a clear call stand among them for comparison. Calls follow the shape of the dose curve; as a rule, active = well fitted activation curve with a large enough effect; inconclusive = small, poorly fitted or top-dose-only effect; inactive = no such curve, though single readings can be large or run the other way. Potencies beside an inconclusive call are fits to weak or partial responses and may not hold up.
Potency is read from the fitted curve at half-maximal effect; tags tell the direction and shape of the fitted curve.

Assay: qHTS for Suppressors of FUS Proteinopathy: Primary screen using FUS-linked yeast assay; also: nearly all actives have a fitted effect of over 55% in size;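 as to growth rescue (activation): plate controls were DMSO vehicle for no effect and reference control for full effect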
Conditions: S. cerevisiae FUS-expressing, OD600, 24 h; Potency: growth rescue; growth rescue (activation): at 76.6 µM (top of the series)
Procedure, shortened: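 Absorbance at 600 nm, taken 24hr after compound addition, measured rescue of FUS-yeast growth at 30C. Induction used 2% galactose with seeding at OD 0.005. Controls: CP55940 from 92uM final, DMSO only.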
With `COCc1c(C)cc(C)c(/C=N/O)c1C` the Potency was inconclusive: 31.6 µM [activator, partial curve, poor fit].
For `CC(C)(C)OC(=O)N1CCC(NC(=O)c2nc[nH]c2C(=O)N2CCN(C(=O)OC(C)(C)C)CC2)CC1`, the Potency was inconclusive: 7.94 µM [activator, partial curve].
With `CCOC(=O)N1CCN(C(=O)c2ccc3nc(-c4ccccc4)c(-c4ccccc4)nc3c2)CC1` the Potency was inconclusive: 22.4 µM [activator, partial curve].
In the case of `CC(C(=O)NC1C=CS(=O)(=O)C1)N1C(=O)/C(=C/c2ccc(Cl)cc2)SC1=S` (stereo unspecified), the Potency is reported as inconclusive: 35.5 µM [activator, single point].
For `O=C(O)CCC(=O)N1N=C(c2ccc(Br)cc2)CC1c1cccc(Br)c1` (stereo unspecified), the Potency was inconclusive: 44.7 µM [activator, single point].
In the case of `COC(=O)[C@@]12CCCCN1[C@H](c1ccc(-c3ccc(OC)cc3)c(OC)c1)[C@@H]1C(=O)N(C)C(=O)[C@@H]12`, the “growth rescue (activation)” value is reported as inactive: 10.3%.
For `COc1ccc(OC)c(NC(=O)c2c(NCc3ccc(OC)c(OC)c3)sc3c2CCC(C)C3)c1` (stereo unspecified), the Potency was inconclusive: 35.5 µM [activator, single point].
With `COC(=O)c1ccccc1NC(=S)N1CCOCC1` the Potency was inconclusive: 4.47 µM [activator, full curve, poor fit].
In the case of `COc1ccc(CNC(=O)CCC2N=C3c4ccccc4N=C(SCc4ccc(F)cc4)N3C2=O)cc1` (stereo unspecified), the Potency is reported as inconclusive: 31.6 µM [activator, partial curve, poor fit].
In the case of `CCC(C)C(NC(=O)C1CCC(C)CC1)C(=O)NCc1cccnc1` (stereo unspecified), the “growth rescue (activation)” value is reported as inactive: 25.2%.
With `Cc1ccc(S(=O)(=O)N2[C@@H](c3ccccc3)C(C(=O)O)=CC[C@H]2c2cccc(Cl)c2)cc1` the “growth rescue (activation)” value was inactive: 9.18%.
For `CN1CCN(C2(CNC(=O)c3ccc([N+](=O)[O-])cc3)CCCCC2)CC1`, the “growth rescue (activation)” value was inactive: 2.46%.
For `COc1ccc(C(=O)N2c3nc(-c4ccco4)nn3C3(CCCCC3)[C@@H]3CCCC[C@@H]32)cc1OC`, the Potency was inconclusive: 50.1 µM [activator, single point].
In the case of `CC(C)c1ccc(C(C)NCCS(=O)(=O)c2ccc(Br)cc2)cc1` (stereo unspecified), the Potency is reported as inconclusive: 28.2 µM [activator, single point].
For `CCN1C(=O)[C@H]2[C@@H](c3ccc(-c4ccc(Cl)c(Cl)c4)cc3)N[C@@](C)(C(=O)OC)[C@H]2C1=O`, the Potency was active: 31.6 µM.
For `Oc1ccc(C[C@H]2CN([C@@H](Cc3ccc(O)cc3)CN3CCC[C@@H]3CN3C(=S)NC[C@@H]3Cc3ccccc3)C(=S)N2CCc2ccccc2)cc1`, the Potency was inconclusive: 25.1 µM [activator, partial curve, poor fit].
